Results taken from the supplement of paper PMC11417369.
The list shows a part of the results.

System: PfSIP2 AP2 domain 1 (GST-tagged)
Test: gcPBM binding intensity (ln(normalized median fluorescence intensity)); higher = stronger DNA binding
Outline: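 In this array assay, P. falciparum DNA-binding domains with a GST tag, expressed in E. coli, were applied for 1 h to primer-extended double-stranded 36-bp intergenic genomic probes and negative controls on an Agilent 4 × 180k array. Bound protein was visualised with Alexa488 anti-GST antibody at 488 nm. Binding intensity is the highest Masliner-normalised natural-log median intensity across replicate spots of either probe orientation.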

Sequence	gcPBM binding intensity (ln)
ATATATCATGCCAAGGGTACAAATGTGTAGTTGAAA [XGTACX_site2820]	7.16
TTTTTTAAATATTATTTTTATGAGTAAATATATTAT [GTGCAC_negctrl_site277]	6.71
ATATTTATACTATACACACCCAATTTAAAAAAAAAT [CACACA_site1163]	7.26
GAAAAATTAAAATGTGGTACAATAAAATTTTATTCA [XGTACX_site5030]	6.96
AATTTATTAATACAAAGTACTTTCTAATATGAATTT [XGTACX_site8013]	6.88
TTATTGCGCACAATTTGTACATATATATATATAGAA [XGTACX_site7573]	7.35
TATTGAAAAAGTGGAAAAAAGTACATCATACGGGAA [CACACA_negctrl_site1091]	7.17
GTAAGAAACAGACACACACACATATAAATATAAATA [CACACA_site6515]	7.29
TAAATCACAAAATTATGTACTAAGAAGGAGCAACAT [XGTACX_site6742]	7.34
TATACCTTAATATACACACATACATATATATATATA [CACACA_site1339]	9.12
TATATACATTTTTATGTGCACATTTTATTTTTAAAT	8.77
TAACAAAGTAAAAGAACATGCAAACACGCACACAGA [TGCATGCA_site374]	7.92
GGGGAAAAAGCAGGTTGTACAGTGATGTCCATATAA [XGTACX_site7606]	7.19
AGTGTATTAAATTTTGAACACACAAAATAAAACATA [CACACA_site8483]	7
TTTAGACTTTTCTATAGTACATATTATATATATATA [XGTACX_site6532]	8.42
TTTTAATTTAAAAATTAATTTATATATATATATATA [TGCATGCA_negctrl_site447]	9.29
AACATTATCAAATAAACCATAAATCAATTCAATATG [CACACA_negctrl_site696]	6.99
AAACGTTTATTTTATTGTACATATGAAAAATGCTTC [XGTACX_site6896]	6.95
AAAAAAAAAAAAAATTGTACGGATTCTTTTTTTTTT [XGTACX_site2898]	7
ATATTTTTTTTTTTCACACACATTTAGATTGTATTA [CACACA_site3137]	7.22
TTGTATAAAAAACTAAAAAATATAAAATAATAAGTG [CACACA_negctrl_site1704]	7.23
CGTAATAATTAATGTTGTACCCACCAAAAAAATTAA [XGTACX_site8592]	7.17

Sequence	gcPBM binding intensity (ln)
ATTACATTTTTGTTTTGTACATATATTTTATAAACA [XGTACX_site494]	7.35
TTGTTTTGTAATAAAAAAAAAATAATATAATATAAT [XGTACX_negctrl_site300]	6.99
TATATTTATATATATACACACATAATAAAAAATATA [CACACA_site844]	6.97
TTTATAGTTTTAAACAAAGTAATACAAATGTATATA [CACACA_negctrl_site1716]	6.77
GAAATATTGAAACACACACACAAACATATATATATA [CACACA_site1911]	9.06
TATAAAAAAAATAAAATAAAATAAAATAGAAAAATA [TGCATGCA_negctrl_site109]	6.77
AAATTTGGTGAAGGATGTACTTTACCTAATACTTGT [XGTACX_site4825]	6.85
AAAACAAAAAAATTTTGTACGAAACAATACTGTAAG [XGTACX_site7992]	7
TATATATATTGTTATTGTACACAAATATAGGAAATA [XGTACX_site7110]	7.27
ATAAATTAAACAAACACACACGTTCTTTTATTTACT [CACACA_site4556]	7.05
AAAAAAATATATTCCTAATTTATGATTAAAAGGAAT [CACACA_negctrl_site751]	6.77
TTTTTTTTTGGGTGTACACATGAATATATATTTTTT [CACACA_site5254]	7.83
AGAATTATATCATGGTGTACTTATTTGTTTATTTCT [XGTACX_site5795]	7.17
AAAAAAAAATAAAAAAGTACAGGTAAATATATATAT [XGTACX_site5812]	8.29
GAATAAATAAAAATATGTACATAAATATATATATAT [XGTACX_site8858]	9.22
AAAAAAAAAAAATATATATATATATATATAATATTT [GTGCAC_negctrl_site678]	7.32
AAGACAAATATGTATTGTACGAACGCTTTTTAATTA [XGTACX_site1961]	7.17
ATACTTTAAAATAATACACACATGGAAAATAAAATT [CACACA_site697]	7.17
TTTATAAAATATCTTTCACACATTACTATGTATTAT [CACACA_site5148]	6.83
ATAAAAGTTTAATATTGTACGAACATGCGTTTCTAA [XGTACX_site1487]	6.78
TTCTTAAAAAATCAAACACACATATATATATACATA [CACACA_site2296]	7.11
ATAAATAGAATAAAATGTACATGTAATACATATATA [XGTACX_site5475]	6.83

Sequence	gcPBM binding intensity (ln)
GTTTAGATAAAAGGGCGTACATCTATTTTTGACTAA [XGTACX_site7170]	6.8
AAAAAAAAAAAAAAAACACACAATTGAATTATTAAG [CACACA_site2864]	7.58
TTTTATTATTAAACATGTACCCATATTATTGTTATG [XGTACX_site5563]	7.21
AAATAAAAAGTAAAGCGTACAAATGATCAAATAATA [XGTACX_site7898]	7.13
TAATCAACAAAATCTACACACTAAAATGAAATATAA [CACACA_site3749]	6.72
TATAAATAGATATATACACACTTGTGCAGAATATTA [CACACA_site7112]	7.01
CCCAGGTGCTCGTAACGTACTTACATCAAATATTAT [XGTACX_site4617]	8.97
AGAAGTGTAAAAGTTACACACACAAACTTGTCATTT [CACACA_site4613]	6.69
AGGCGTGAAATATACGTACACACATTATTTATATTT [CACACA_site2558]	7.32
TAACATTACTCTTAACTCTTTTGGATACCAACTTAT [XGTACX_negctrl_site82]	6.86
AAATATTTATAAATTGCACACAAATAATAACATTAT [CACACA_site8737]	7
ATAATAATATATACATGTACATATATATATATATAT [XGTACX_site3455]	9.14
TTTTTTTTTTTAATATGTACGTAAAATAAGTTTAAA [XGTACX_site6495]	7.54
TATTATATTTATTTATGTACACATATACTTAAATAA [XGTACX_site1355]	7
ACACCTATAAATTAAGTGCATTTTTTTTGATGTTAT	9.15
TGTAATACAGAAAAAAGTACTAAAAAGAAAAGGATT [XGTACX_site3176]	7.25
ACATTCAATCTACTGTGTACATATTAAACTTTGAAA [XGTACX_site2913]	7.49
AAAAAATATATATCACGTGGTAATATATATATATAT [XGTACX_negctrl_site252]	8.8
TACATCTGTATATAAACACACAACAAAAATGCTTAC [CACACA_site3814]	7.02
AAATTAAATCCGCACGCACACACACCGATTAATAAA [CACACA_site9321]	7.36
AATATATAAATAGATACACACATACATACATACATA [CACACA_site4301]	7.1
ATATATATACAACAAGCATGCAGTAATTTTTTTTTT [TGCATGCA_site728]	7.59

Sequence	gcPBM binding intensity (ln)
CTATAATAACATAACACACACATGTATTTATAGGTG [CACACA_site6298]	7.05
TCCTTATAAAAATACACACAAACTTTAATTAAAACA [CACACA_site3730]	7.04
TTATGAAAAAAATACTGTACACAATATGACGAAAGT [XGTACX_site2283]	7.45
TTTTAAATAAATCATGCATGCACATATAATTATATT [TGCATGCA_site151]	8.43
TATCTCATTTGGAATTGTACTAACAGATACTTGTTT [XGTACX_site2672]	6.71
TATACGCATATTTTTACACACATATTTTTTCATATA [CACACA_site2546]	7.11
TATATATAATATATATGTACATATGTATAATATTTA [XGTACX_site4400]	7.32
AAATTATTGAAATACGCATGTGTTTTTTTTTTTTTT [TGCATGCA_site391]	7.03
AATATTACGTCTGGACGTACAAATCTTTTTCGTGTC [XGTACX_site6644]	6.88
ACATTTTTTTTTTTTTTTTTTTTCTTACATCATGCA [CACACA_negctrl_site1413]	7.1
ATATAAAGGTTTATTAGTACACATTAGAATACTTTT [XGTACX_site4492]	6.89
TTTTACTAGATATATACACACATTATACCTATAGAT [CACACA_site7530]	7.4
GAAATATTTTGTTGTGCATGCGACATTAAATAAAAA [TGCATGCA_site331]	7.31
CATATTAGGACAAAGTGTACATATATATATATATAT [XGTACX_site1172]	9.53
AATATACACATTGTGAAATAACAAAAAAGGCAAAAA [CACACA_negctrl_site1014]	7.26
CCTATTTATATATACACACACATATATAAATAAATA [CACACA_site2991]	7.26
ATATATATTCATAATACACACATTCTGTAGCATTAT [CACACA_site2067]	7.08
ATAGTATCTGGTAGCTGTACGAATGGTAGAGAGTAG [XGTACX_site2548]	7.77
AATAAAAAGATATTCTCCTTGTTCCTTTTTTTTAAA [CACACA_negctrl_site1147]	6.64
TATATATATGTATGATGTACATATATGCATATATAT [XGTACX_site3399]	7.54
TTAATTAAATATTATACACACAAAAAAATAATTTTA [CACACA_site96]	6.88
AATCTATATTGACACACACACAAAAAAAAAAAAAAA [CACACA_site6739]	7.02
